Results taken from the supplement of paper PMC11876631.
Numbering of substitutions follows the chain as printed. Names and notes keep the numbering of the source. ± gives the standard deviation of the averaged measurements. Laboratory Escherichia coli strains with one amino-acid change in an essential protein, pooled on minimal glucose agar with carbenicillin or gentamicin at twice the control MIC (plus kanamycin and chloramphenicol for the plasmids), 48 h. Fold change of barcode share against drug-free plates; higher = less susceptible. Active = above 20 in both replicates (the paper's putatively resistant). '<' = one read or none on drug, '>' = one read or none on a drug-free plate. Shares are relative, so most strains fall below 1 when a few take over. Listed are strains with at least 15 reads on both drug-free plates, and hits; most hits rest on fewer reference reads. Replicate rank correlation about 0.5. Edits are read from barcodes.

B1: aroD L158Q (protein)
chain: MKTVTVKDLVIGTGAPKIIVSLMAKDIASVKSEALAYREADFDILEWRVDHYADLSNVESVMAAAKILRETMPEKPLLFTFRSAKEGGEQAISTEAYIALNRAAIDSGLVDMIDLELFTGDDQVKETVAYAHAHDVKVVMSNHDFHKTPEAEEIIARQRKMQSFDADIPKIALMPQSTSDVLTLLAATLEMQEQYADRPIITMSMAKTGVISRLAGEVFGSAATFGAVKKASAPGQISVNDLRTVLTILHQA
B2: aroD M203A (protein)
chain: B1 chain with Q158L, M203A
B3: aroD L45P (protein)
chain: B1 chain with L45P, Q158L
B4: aroD I168Q (protein)
chain: B1 chain with Q158L, I168Q
B5: lpxC L66A (protein)
chain: MIKQRTLKRIVQATGVGLHTGKKVTLTLRPAPANTGVIYRRTDLNPPVDFPADAKSVRDTMLCTCAVNEHDVRISTVEHLNAALAGLGIDNIVIEVNAPEIPIMDGSAAPFVYLLLDAGIDELNCAKKFVRIKETVRVEDGDKWAEFKPYNGFSLDFTIDFNHPAIDSSNQRYAMNFSADAFMRQISRARTFGFMRDIEYLQSRGLCLGGSFDCAIVVDDYRVLNEDGLRFEDEFVRHKMLDAIGDLFMCGHNIIGAFTAYKSGHALNNKLLQAVLAKQEAWEYVTFQDDAELPLAFKAPSAVLA
B6: lpxC L115Q (protein)
chain: B5 chain with A66L, L115Q
B7: lolD I40Q (protein)
chain: MNKILLQCDNLCKRYQEGSVQTDVLHNVSFSVGEGEMMAQVGSSGSGKSTLLHLLGGLDTPTSGDVIFNGQPMSKLSSAAKAELRNQKLGFIYQFHHLLPDFTALENVAMPLLIGKKKPAEINSRALEMLKAVGLDHRANHRPSELSGGERQRVAIARALVNNPRLVLADEPTGNLDARNADSIFQLLGELNRLQGTAFLVVTHDLQLAKRMSRQLEMRDGRLTAELSLMGAE
B8: lpxD V201P (protein)
chain: MPSIRLADLAQQLDAELHGDGDIVITGVASMQSAQTGHITFMVNPKYREHLGLCQASAVVMTQDDLPFAKSAALVVKNPYLTYARMAQILDTTPQPAQNIAPSAVIDATAKLGNNVSIGANAVIESGVELGDNVIIGAGCFVGKNSKIGAGSRLWANVTIYHEIQIGQNCLIQSGTVVGADGFGYANDRGNWVKIPQIGRPIIGDRVEIGACTTIDRGALDDTIIGNGVIIDNQCQIAHNVVIGDNTAVAGGVIMAGSLKIGRYCMIGGASVINGHMEICDKVTVTGMGMVMRPITEPGVYSSGIPLQPNKVWRKTAALVMNIDDMSKRLKSLERKVNQQD
B9: lolC I145D (protein)
chain: MYQPVALFIGLRYMRGRAADRFGRFVSWLSTIGITLGVMALVTVLSVMNGFERELQNNILGLMPQAILSSEHGSLNPQQLPETAVKLDGVNRVAPITTGDVVLQSARSVAVGVMLGIDPAQKDPLTPYLVNVKQTDLEPGKYNVDLGEQLASQLGVNRGDQIRVMVPSASQFTPMGRIPSQRLFNVIGTFAANSEVDGYEMLVNIEDASRLMRYPAGNITGWRLWLDEPLKVDSLSQQKLPEGSKWQDWRDRKGELFQAVRMEKNMMGLLLSLIVAVAAFNIITSLGLMVMEKQGEVAILQTQGLTPRQIMMVFMVQGASAGIIGAILGAALGALLASQLNNLMPIIGVLLDGAALPVAIEPLQVIVIALVAMAIALLSTLYPSWRAAATQPAEALRYE
B10: lolC M165D (protein)
chain: B9 chain with D145I, M165D
B11: lptA F95A (protein)
chain: MKFKTNKLSLNLVLASSLLAASIPAFAVTGDTDQPIHIESDQQSLDMQGNVVTFTGNVIVTQGTIKINADKVVVTRPGGEQGKEVIDGYGKPATAYQMQDNGKPVEGHASQMHYELAKDFVVLTGNAYLQQVDSNIKGDKITYLVKEQKMQAFSDKGKRVTTVLVPSQLQDKNNKGQTPAQKKGN
B12: lptA F95W (protein)
chain: B11 chain with A95W
B13: lptA F95D (protein)
chain: B11 chain with A95D
B14: lolE L41Q (protein)
chain: MAMPLSLLIGLRFSRGRRRGGMVSLISVISTIGIALGVAVQIVGLSAMNGFERELNNRILAVVPHGEIEAVDQPWTNWQEALDHVQKVPGIAAAAPYINFTGLVESGANLRAIQVKGVNPQQEQRLSALPSFVQGDAWRNFKAGEQQIIIGKGVADALKVKQGDWVSIMIPNSNPEHKLMQPKRVRLHVAGILQLSGQLDHSFAMIPLADAQQYLDMGSSVSGIALKMTDVFNANKLVRDAGEVTNSYVYIKSWIGTYGYMYRDIQMIRAIMYLAMVLVIGVACFNIVSTLVMAVKDKSGDIAVLRTLGAKDGLIRAIFVWYGLLAGLFGSLCGVIIGVVVSLQLTPIIEWIEKLIGHQFLSSDIYFIDFLPSELHWLDVFYVLVTALLLSLLASWYPARRASNIDPARVLSGQ
B15: lptG I15A (protein)
chain: MQPFGVLDRYIGKTAFTTIMMTLFMLVSLSGIIKFVDQLKKAGQGSYDALGAGMYTLLSVPKDVQIFFPMAALLGALLGLGMLAQRSELVVMQASGFTRMQVALSVMKTAIPLVLLTMAIGEWVAPQGEQMARNYRAQAMYGGSLLSTQQGLWAKDGNNFVYIERVKGDEELGGISIYAFNENRRLQSVRYAATAKFDPEHKVWRLSQVDESDLTNPKQITGSQTVSGTWKTNLTPDKLGVVALDPDALSISGLHNYVKYLKSSGQDAGRYQLNMWSKIFQPLSVAVMMLMALSFIFGPLRSVPMGVRVVTGISFGFVFYVLDQIFGPLTLVYGIPPIIGALLPSASFFLISLWLLMRKS
B16: lptG I175P (protein)
chain: B15 chain with A15I, I175P

Target: Escherichia coli (laboratory strain)
Experiment: barcode share on antibiotic plates over drug-free plates; higher = less susceptible
Conditions: antibiotic: gentamicin; 2× MIC (MIC 0.45 µg/mL)
Description: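 A pool of E. coli strains, each edited to carry one amino-acid change in an essential protein, was grown for 48 h on minimal glucose agar with or without antibiotic; strain barcodes were sequenced; mean of two replicates.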

Protein | fold change of barcode share
B1 | < 0.0226
B2 | < 0.0162
B3 | < 0.019
B4 | < 0.0206
B5 | < 0.0164
B6 | < 0.0163
B7 | < 0.0181
B8 | 0.0288 ± 0.029
B9 | < 0.014
B10 | < 0.0175
B11 | 0.00849 ± 0.0061
B12 | 0.00781 ± 0.0047
B13 | < 0.0226
B14 | < 0.0113
B15 | < 0.0158
B16 | < 0.0105
